# Reference: paper PMC4336329 (PLoS ONE, 2015)
# About 14,000 (4.5%) of roughly 310,000 compounds showed an effect of 50% or more. Effects have a minus sign here. The list shows a part of the results.
# Target: human ether-à-go-go-related gene (hERG) potassium channel (human, UniProt Q12809)
# Experiment: primary screen, population patch clamp on CHO cells stably expressing hERG
# 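Note: peak tail current of the secondary pulse compared with the same well before compound.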
# Sequence of human ether-à-go-go-related gene (hERG) potassium channel (Q12809 whole entry, looked up): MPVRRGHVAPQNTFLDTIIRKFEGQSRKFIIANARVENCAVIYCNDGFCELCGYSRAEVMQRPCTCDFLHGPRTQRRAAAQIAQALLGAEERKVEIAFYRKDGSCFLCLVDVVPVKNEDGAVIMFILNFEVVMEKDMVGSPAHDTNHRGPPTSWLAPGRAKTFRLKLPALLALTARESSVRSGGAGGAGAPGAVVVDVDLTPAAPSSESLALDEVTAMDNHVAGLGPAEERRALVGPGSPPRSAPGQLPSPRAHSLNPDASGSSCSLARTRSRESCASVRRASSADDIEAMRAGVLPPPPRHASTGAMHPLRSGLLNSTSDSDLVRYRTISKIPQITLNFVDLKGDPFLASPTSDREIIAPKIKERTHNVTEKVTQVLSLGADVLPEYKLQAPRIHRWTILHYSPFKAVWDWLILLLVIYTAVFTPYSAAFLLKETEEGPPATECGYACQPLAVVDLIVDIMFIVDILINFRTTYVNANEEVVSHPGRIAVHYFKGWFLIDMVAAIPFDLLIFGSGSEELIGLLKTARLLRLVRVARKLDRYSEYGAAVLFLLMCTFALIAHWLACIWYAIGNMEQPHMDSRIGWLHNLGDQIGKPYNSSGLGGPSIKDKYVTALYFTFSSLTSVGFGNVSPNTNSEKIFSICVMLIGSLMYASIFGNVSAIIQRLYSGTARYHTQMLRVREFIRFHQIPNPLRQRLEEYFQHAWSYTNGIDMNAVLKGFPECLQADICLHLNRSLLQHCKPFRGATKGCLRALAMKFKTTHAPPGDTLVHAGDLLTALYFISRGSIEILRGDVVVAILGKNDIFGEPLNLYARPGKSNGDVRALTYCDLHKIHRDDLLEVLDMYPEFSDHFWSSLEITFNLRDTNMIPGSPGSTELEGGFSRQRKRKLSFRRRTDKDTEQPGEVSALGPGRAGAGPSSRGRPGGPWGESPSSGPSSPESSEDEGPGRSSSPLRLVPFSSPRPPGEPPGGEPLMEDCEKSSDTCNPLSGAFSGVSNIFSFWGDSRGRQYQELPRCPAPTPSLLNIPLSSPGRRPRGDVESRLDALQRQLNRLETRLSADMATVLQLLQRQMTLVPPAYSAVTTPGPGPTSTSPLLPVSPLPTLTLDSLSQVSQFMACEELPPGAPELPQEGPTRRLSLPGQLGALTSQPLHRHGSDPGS
row,SMILES,"hERG current change (%, negative = inhibition) at 10uM [%]"
1,NC(=O)Cc1ccc(Nc2nnc(-c3ccc(O)cc3)c3ccccc23)cc1,17.7
2,N#CC1=C2SCN(Cc3ccco3)CN2C(=O)CC1c1c(F)cccc1Cl (stereo not shown),13.4
3,Cc1ccc(C)c(N2CCN(C(=O)c3cn(C)c4ccc(S(=O)(=O)N(C)C)cc4c3=O)CC2)c1,-4.85
4,CCSc1c(-c2ccccc2)nc2c(C)cccc2c1C(=O)O,12.4
5,CCOc1ccccc1C(=O)Nc1cc(Cl)ccc1O,14.7
6,Cc1ccc(-c2noc(CN(C(=O)Cc3ccccc3)C(C)C)n2)cc1,-8.68
7,O=C(COc1ccc(C(=O)Nc2ccc(Cl)cc2)cc1)NCc1ccccc1,0.389
8,O=c1c2sccc2n(Cc2cc(=O)n3ccccc3n2)c(=O)n1-c1ccccc1,-4.1
9,CC1CCCN(c2nc3c(c(=O)[nH]c(=O)n3C)n2Cc2ccccc2Cl)C1 (stereo not shown),-8.17
10,CSc1ccccc1NC(=O)CN(c1cc(C)cc(C)c1)S(C)(=O)=O,1.05
11,CNc1nc(Sc2cccc(C(F)(F)F)c2)cc(C(F)(F)F)n1,31
12,Cc1cc(C)cc(NC(=S)Nc2ccccn2)c1,-8.14
13,COc1cccc(C(=O)Nc2c3c(nn2-c2cccc(C)c2C)CS(=O)(=O)C3)c1OC,-47.5
14,CN1c2ccccc2Oc2c(c(=O)n(C)c(=O)n2C)C1c1cccc([N+](=O)[O-])c1 (stereo not shown),-15.5
15,CN(C(=O)COC(=O)c1cccs1)c1c(N)n(Cc2ccccc2)c(=O)[nH]c1=O,-10.8
16,CCc1cccc(NC(=O)CCc2nc(-c3cccs3)no2)c1,-12.4
17,COc1ccccc1NC(=O)C12CCC(C)(C(=O)C1)C2(C)C (stereo not shown),14.8
18,O=C(COC(=O)C1CCN(S(=O)(=O)c2cccs2)CC1)Nc1ccc(F)cc1F,-39.2
19,CCCn1c(-c2cc(OC)c(OC)c(OC)c2)nc2c1c(=O)[nH]c(=O)n2Cc1ccccc1,5.09
20,Cc1nnc(SC(C)C#N)n1-c1ccccc1 (stereo not shown),12.5
21,CS(=O)(=O)N(CC(=O)NCCSCc1ccccc1Cl)c1ccccc1F,-35.4
22,O=C(NCC(F)(F)F)Nc1nnc(C(F)(F)F)s1,-1.37

row,SMILES,"hERG current change (%, negative = inhibition) at 10uM [%]"
1,CC(C)CCN1CC(O)=C(c2nc(-c3ccc(Cl)cc3)cs2)C1=N,14.1
2,Cc1sc(NC(=O)c2ccco2)c(CN2CCN(c3ccccc3)CC2)c1C,7.18
3,CCCCC1=CC2=C(c3ccco3)C(=O)C(C)(OC(=O)c3ccc(OC)cc3)C(=O)C2=CN1CCN1CCOCC1 (stereo not shown),5.5
4,O=C(NCc1ccco1)c1c(F)c(F)c(F)c(C(=O)NCc2ccco2)c1F,17.5
5,Cn1nnnc1SCC(=O)NCC(=O)c1ccccc1,-9.12
6,O=C(COC(=O)c1ccc[n+]([O-])c1)Nc1ccc(Cl)cc1[N+](=O)[O-],-12.4
7,CCCCNC(=O)CCn1c(=O)c2ccccc2n(Cc2cc(C)ccc2C)c1=O,6.37
8,CCN1CCN(CC(O)COC(C)C)CC1.Cl (stereo not shown),2.08
9,Clc1nc(-c2ccccc2)ncc1Oc1ccccc1,14.6
10,COc1ccc(/C=N/NC(=O)C2c3ccccc3-c3ccccc32)cc1,-2.98
11,Cc1ccc(Nc2ncnc3ccccc23)cc1.Cl,1.6
12,O=C(O)COc1ccccc1/C=N/NC(=O)CSc1nnc(SCc2cccc3ccccc23)s1,15.8
13,Cc1cccc(Nc2nc3c(S(=O)(=O)c4ccccc4)nnn3c3ccccc23)c1,17.6
14,Cc1ccccc1C(=O)N1CCN(c2ccc(N3CCOCC3)nn2)CC1,11.6
15,O=C(c1cccc(C(F)(F)F)c1)C1CCCN(C(=O)/C=C/c2cnc[nH]2)C1 (stereo not shown),-18.9
16,CC(C)[C@H](NC(=O)c1ccccc1)C(=O)OCC(=O)N1CCCc2ccccc21,2.57
17,COC(=O)[C@@H](NC(=O)NC(C)CCc1ccccc1)C(C)C (stereo partly shown),9.82
18,COc1ccc(C(=O)Nc2ccncc2)cc1[N+](=O)[O-],10.8
19,O=C(Cn1cnc2ccccc2c1=O)N(Cc1ccco1)c1ccc(O)cc1,-3.58
20,CCC(=O)c1ccc(OC(=O)c2cccs2)cc1,2.63
21,CCc1ccc(/C(C)=N/NC(=O)C(O)c2ccccc2)s1 (stereo not shown),16.5
22,CCCn1c(=O)c2ccccc2n2c(SCc3cc(=O)oc4ccc5ccccc5c34)nnc12,-2.87

row,SMILES,"hERG current change (%, negative = inhibition) at 10uM [%]"
1,Clc1ccc(CNc2nc(CN3CCOCC3)nc3scc(-c4ccccc4)c23)cc1,-9.73
2,N#Cc1c(Cl)cccc1N1CCC(C(N)=O)CC1,-1.76
3,O=C(Cc1c[nH]c2ccccc12)Nc1nccs1,0.956
4,CC1=NNC(=O)C1CCC(=O)N/N=C/c1c(Cl)cccc1Cl (stereo not shown),11.8
5,COc1cc2[nH]c(=O)n(-c3cccc(Cl)c3)c(=O)c2cc1OC,19
6,Cn1cccc1CC(=O)NNC(=S)Nc1ccc(Cl)cc1,8.69
7,COC(=O)CC1SC(=O)NC1=Nc1ccc(C)cc1 (stereo not shown),0.751
8,CCOC(=O)c1c(C)oc2ccc(NS(=O)(=O)c3ccc(C(=O)O)cc3)cc12,19.9
9,O=C(CN(C(=O)c1csnn1)c1ccccc1Cl)NC1CCCC1,3.04
10,COc1ccc(C(=O)CN2C3=NCCCN3c3ccccc32)cc1OC,-36.5
11,O=C(O)c1cc(NC(=O)c2ccc3c(c2)C(=O)N(Cc2cccnc2)C3=O)cc(C(=O)O)c1,2.23
12,CCCCCCCCNc1ncnc2ccccc12,-37.1
13,COc1ccc(N2CCN(C(CNC(=O)C(=O)NC3CC3)c3ccco3)CC2)cc1 (stereo not shown),13.6
14,Cc1ccc(S(=O)(=O)CCC(=O)OCC(=O)N2CC(=O)Nc3ccccc32)cc1,-22.1
15,Cc1ccc(C(=O)NCCNC(=O)c2ccc(C)nc2)cc1,5.21
16,O=C(COc1ccccc1)Nc1cccc(-c2nc3ccccc3[nH]2)c1,-67
17,CCOc1ccc(NC(=O)COc2nsnc2N2CCCCC2)cc1,21.6
18,OC(COc1ccccc1)CN1CCCCCC1 (stereo not shown),-4.43
19,COC(=O)c1ccc2nc(NC(=O)COC(=O)CSc3nc(C)cc(C)n3)sc2c1,17.4
20,CN1CCN(c2ccc(-c3ccnn3C(=O)Nc3cccc(C(F)(F)F)c3)cc2)CC1,0.251
21,Cc1cc(=O)nc2c3ccccc3n(CC(=O)NCCC3=CCCCC3)n12,-11.5
22,Cn1nc(C(=O)NCCc2ccc(Cl)cc2)c2c1-c1ccccc1S(=O)(=O)C2,-4.99

row,SMILES,"hERG current change (%, negative = inhibition) at 10uM [%]"
1,COc1ccc(NS(=O)(=O)c2cccc(C(=O)OCC(=O)Nc3cc(C)on3)c2)cc1,-11
2,CC(C)Oc1ccc(C2NC(=O)c3ccccc3O2)cc1 (stereo not shown),21.4
3,CCC(CO)N=C1CC(C)(C)CC(=O)/C1=C(/O)CCCN1C(=O)c2ccccc2C1=O (stereo not shown),17.2
4,COc1ccc(S(=O)(=O)N2CCC(C(=O)Oc3c(OC)cccc3OC)CC2)cc1OC,-8.18
5,CCOc1ccc(N(C(C)C(=O)NCc2ccco2)S(C)(=O)=O)cc1 (stereo not shown),-2.31
6,O=C(O)c1cccn2c(=O)c3ccccc3nc12,13.1
7,COc1ccccc1C(=O)NNC(=S)NC(=O)c1cc(OC)c(OC)c(OC)c1,0.00238
8,O=[N+]([O-])c1cccc(-c2noc(-c3cccs3)n2)c1,9.13
9,CCn1c(SCC(=O)Nc2cc(F)ccc2C)nnc1-c1ccccc1O,-11.6
10,COc1ccc(NC(=O)C(=O)NCCN2CCN(C(=O)c3ccco3)CC2)cc1,-11.1
11,Cc1ccccc1NS(=O)(=O)c1cc(S(C)(=O)=O)ccc1C,14.7
12,Nn1c(SCC(=O)N2CCCCCC2)nnc1-c1ccco1,-3.8
13,Cc1cccc(C(=O)OC2CCCN(C)C2)c1C.Cl (stereo not shown),2.36
14,COc1ccc(NC(=O)NC2(C(=O)N3CCOCC3)CCCCC2)cc1,15
15,COC(=O)c1c(-c2ccccc2)csc1NC(=O)CSc1ncnc2sc(C)c(C)c12,2.42
16,O=P(O)(COc1ccccc1)COc1ccccc1,3.08
17,Cc1cc(C(=O)NNc2ccc(F)cc2)no1,16.4
18,Cc1ccc(CNC(=O)CN(c2cccc([N+](=O)[O-])c2)S(=O)(=O)c2ccccc2)cc1,-25
19,CCCCn1c(NCCO)nc2ccccc21,-2.27
20,CCC(C)n1c(O)c(C=NCc2cccnc2)c(=O)[nH]c1=S (stereo not shown),-16.4
21,C=CCOc1ccc(/C=C/C(=O)OCC(=O)NCc2ccco2)cc1,9
22,COCCC(=O)N1CCC(n2nccc2NC(=O)CCc2ccccc2)CC1,14.2
